± gives the standard deviation of the averaged measurements. The list shows a part of the results.
system: PfAP2-LT AP2 domain (GST-tagged); assay: gcPBM binding intensity (ln(normalized median fluorescence intensity)); higher = stronger DNA binding
Summary of the method: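 Plasmodium falciparum DNA-binding domains carrying a GST tag were expressed in E. coli and applied for 1 h, at about 25 μg on average, to an Agilent 4 × 180k array. The array held primer-extended double-stranded 36-bp intergenic genomic probes together with negative controls, and binding took place in 1× PBS with 1% milk, 0.2 mg/ml BSA, 0.5% salmon testes DNA and 0.03% Triton X-100. An Alexa488 anti-GST antibody detected bound protein, and the array was scanned at 488 nm. Binding intensity is taken as the highest Masliner-normalised natural-log median intensity across replicate spots of either probe orientation.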

Point of comparison: “TATATATGTATATATTGTACTTTAAGACAAATATAT [XGTACX_site1052]”, “gcPBM binding intensity (ln)” value 8.54 ± 0.37. Against it:
- TATATAAAAATATACACACACAAATGTATATATATA [CACACA_site220] — within error, 9.13 ± 0.3
- TACATACATACATACACACACATATAGATTTATATA [CACACA_site6999] — higher, 9.48 ± 0.28
- TTTTTTTTTTTTTTTAAACACACGGTGTGAAAATTA [CACACA_site3818] — within error, 8.45 ± 0.36
- TCTTTATTATTCGCCACACACATATAAATATAAATA [CACACA_site7441] — within error, 8.93 ± 0.4
- ATAATTTTGTATAATTGTACATTATTTTAAATAAAT [XGTACX_site7952] — within error, 8.59 ± 0.47
- AAAACATAACATTGTTGTACTACTAATAAAATAAGT [XGTACX_site6149] — within error, 8.8 ± 0.52
- ATCAATCATGGTTTTACACACACATGCATGTGAAAA [CACACA_site1350] — higher, 9.29 ± 0.23
- TTATCATATCATGGAAGTACAAATAAAATATATAAC [XGTACX_site1608] — within error, 8.8 ± 0.44
- ATTTGATAGACACATGCACACATGCAATACTTTATT [CACACA_site5633] — within error, 9.24 ± 0.35
- TTTTCTGTGTTTACATGTACGAAAGATTAATATTAT [XGTACX_site5214] — within error, 8.73 ± 0.37
- AATGATATATTTAAATGTACACATGAAATATAATAT [XGTACX_site2678] — within error, 8.8 ± 0.43
- TTATATTTGATAGTTTGTACATATAATTATTATCAT [XGTACX_site5676] — within error, 8.8 ± 0.52
- TATCTTCAAGTATGTACACACTATATATAATAAAAT [CACACA_site5368] — within error, 9.01 ± 0.46
- TTCTTGTTCCTGAAAGTGCATATAACAAAAATAACA [GTGCAC_site9635] — within error, 8.39 ± 0.3
- ATAATTACATTCCATACACACATATATTTAAAGGTT [CACACA_site7403] — within error, 9.02 ± 0.42
- TATAAGTGCCGTTATACACACGTTATATAAATATTA [CACACA_site4401] — within error, 8.81 ± 0.4
- ATAATTATATTTAGTGGTACTACTTTTGATAATTAG [XGTACX_site6562] — within error, 8.63 ± 0.42
- TGTAATATATGTATTGCACACCTATAACCATTATTT [CACACA_site8422] — within error, 9.05 ± 0.32
- GATGAATAATATGTATGTACATATGCATTATGATGT [XGTACX_site7655] — within error, 9.03 ± 0.38
- ATATGCACTTTTTGCACACGTATGAATAACAAAATA [CACACA_site1810] — within error, 9.09 ± 0.33
- ACATATAGATAAATATGTACATATATATATATATAT [XGTACX_site1806] — higher, 9.74 ± 0.2
- AAATGTGAAAAAGAGTGTACCCGACTTGAAATTAAG [XGTACX_site8621] — within error, 8.96 ± 0.42
- AGTAGAATATCCCCTACACACCCAAGTAATTTACAA [CACACA_site6708] — higher, 9.29 ± 0.33
- AATTAAAAGTGAAGAGTGCATAGAATTTTTTACTTT [GTGCAC_site9973] — within error, 8.61 ± 0.54
- TTTAATTTTCAATGGCGTACATATAAAATATTATAT [XGTACX_site1672] — within error, 8.62 ± 0.32
- ATATAAGTATATCTATGTACATACAATATAAATGTA [XGTACX_site2153] — within error, 8.81 ± 0.49
- TATATACATACATATTGTACTTATAAAGATTAATTT [XGTACX_site2203] — within error, 8.57 ± 0.37
- TTTTAAAAAAAAAAAAAATAAGATAAAATTAAATAA [GTGCAC_negctrl_site367] — within error, 8.06 ± 0.51
- ATAAAAAATATCACATAAAATAAAAAAAGAAAGGAT [XGTACX_negctrl_site294] — within error, 9 ± 0.59
- TATATATAAAAATATACACACTGTATTATTGTAATA [CACACA_site5959] — within error, 8.71 ± 0.4
- TATATATATACAGTAGTGCATATATTTAAAATATAT [GTGCAC_site9999] — within error, 8.8 ± 0.45
- ATATATAAAAATAAATGTACATATTCATATGATGAT [XGTACX_site3411] — within error, 8.86 ± 0.46
- ATAGGATATTATTCCTGTACATATATATATATATAT [XGTACX_site2108] — higher, 9.58 ± 0.24
- GACAATTATATGTAGGTGCATATACAAATTTTTTAA — within error, 8.85 ± 0.45
- AATAGTTATTCCAGGTGTACATAACATATAATTTAC [XGTACX_site1340] — within error, 8.79 ± 0.42
- ATCAAAAGAAGACACACACACATACCTATAAATATA [CACACA_site7736] — higher, 9.89 ± 0.33
- TTATTATTATTACTTACGCACACTTTTTTTTTTATT [CACACA_site411] — within error, 9.08 ± 0.52
- ATATATATATATATATGTACATACAATTATATTCTC [XGTACX_site1133] — higher, 9.82 ± 0.25
- AATCTTCTTAATTGTAGTACACAATTTATAAACAAA [XGTACX_site8706] — within error, 8.49 ± 0.52
- TACATAAATTTTAATACATGCAAATAAAATATATAA [TGCATGCA_site131] — within error, 8.62 ± 0.31
- AAAAATCATTTAAGAACACACAAATATTTCCATTAA [CACACA_site1488] — within error, 8.65 ± 0.48
- AAAAAAAAAAAAAACACACACACATAGACCTCCAAT [CACACA_site3563] — higher, 10.2 ± 0.26
- ATAACGAACACTATTACACACATACATACATATGTA [CACACA_site5092] — higher, 9.3 ± 0.29
- TTTTTTGTTACAACAGTGCAAAAAAACCTTAATGTT — within error, 8.51 ± 0.49
- AAATGACTATATAAAAGTACTAGAAAGTATAAATAT [XGTACX_site944] — within error, 8.95 ± 0.5
- AAAATACACGATAGTTGTACATTAAATGTATACAAT [XGTACX_site360] — within error, 9.12 ± 0.39
- CATCCGTTGATATATGCATGCATATTGTTATTACCA [TGCATGCA_site868] — within error, 9.11 ± 0.36
- TCTAATACACAATGTTGTACATATTAATATATATGT [XGTACX_site2931] — within error, 8.88 ± 0.43
- ATCATTCTTAAACCGTGTACTTATTATTTTTTTTTT [XGTACX_site2798] — within error, 8.85 ± 0.54
- TATAAAGATATAAATGCACACGTATTAAAAAAAAAA [CACACA_site8223] — within error, 9.05 ± 0.41
- CCTCTCATTTTATATAGTACATATTTCAAAAAAAAA [XGTACX_site488] — within error, 8.12 ± 0.35
- GCATATATGGATATATAGGTATATATAAATGCAATA [GTGCAC_negctrl_site24] — within error, 8.93 ± 0.51
- AGGAGGATAGTTCACAGTACCCAGTAACTCTACGGA [XGTACX_site1997] — within error, 8.77 ± 0.52
- ATATAAAAAAAAAATTGTACAAAAATATATACATAT [XGTACX_site469] — within error, 8.87 ± 0.43
- GCATATTTTCCCTGTGAATAAAGTTTTTTTTTTTAT [XGTACX_negctrl_site87] — within error, 8.6 ± 0.52
- AAGGTATAGAAACACACACACGTGAATATAGTTTAA [CACACA_site5109] — higher, 9.53 ± 0.39
- TTCTTAAATATATTCAACATACATAATATATAATCT [CACACA_negctrl_site1806] — within error, 8.43 ± 0.54
- AATATTTTTCAATTTCATGTGCATTCATTGAAGTTA [CACACA_negctrl_site1232] — within error, 8.64 ± 0.4
- TATATAACATATATATGTACACATAATATCAGATTT [XGTACX_site1041] — within error, 8.88 ± 0.43
- CGTTATATAATAAAGGTGCATAGATATATCATTATA [GTGCAC_site9774] — within error, 8.71 ± 0.45
- ATATAAAAAAGGGAGGTAAATGAATGTGAAACCCAA [GTGCAC_negctrl_site359] — within error, 8.85 ± 0.44
- TTTTAATTAGTACAAACACACATATACACCCAAAAA [CACACA_site5422] — within error, 9.12 ± 0.27
- CTAATATAGGTATGCACACACAATATGTACATATTT [CACACA_site7558] — higher, 9.55 ± 0.39
- TAATTTTTTTTAAACACACACATTACATTCAAAAAT [CACACA_site127] — within error, 8.94 ± 0.4
- TTTCAAATATATATAGCACACAAGGTATAATATAAA [CACACA_site877] — within error, 8.83 ± 0.44
- TTCACTAATAAATACGCACACATATACATATATATA [CACACA_site1383] — within error, 9.08 ± 0.38
- TAATTGTAGACATGCACACACAAATATTATATATGT [CACACA_site845] — higher, 9.41 ± 0.33
- TATTTTTTACATTCGTGTACGCATTTTTGTGAATTT [XGTACX_site5339] — within error, 8.98 ± 0.5
- ACAAAAATATTTGTAAAAAGAAATATAAATAAATAA [TGCATGCA_negctrl_site357] — within error, 8.5 ± 0.49
- AAAAATAGAGCAGCTCTCATATTTTTATGTGCAATA [CACACA_negctrl_site837] — within error, 8.59 ± 0.38
- AGGATATATTATATGTACACACACATATAAGGGATT [GTGCAC_negctrl_site47] — higher, 9.45 ± 0.37
- TATTACACACAATATTGTACACATAGGAAAAATATT [XGTACX_site1726] — within error, 9.16 ± 0.38
- GCATTTATGAAAAATGTACACACATCAAATGCTTAT [CACACA_site9347] — within error, 8.98 ± 0.34
- TATTTTATTTTTTGTTGTACATATATATTATATATA [XGTACX_site4513] — within error, 8.78 ± 0.49
- ATATGTAAAATATGGTGTACAATCAAATAAAAAAAA [XGTACX_site6270] — within error, 8.99 ± 0.49
- ATTAATATATTTACCACACACCCATTTCGATTTTAT [CACACA_site3605] — within error, 9.18 ± 0.34
- AATATATATATATATCCACACACATACATATATTAA [CACACA_site7907] — higher, 9.36 ± 0.28
- TACATAAAAATATATGCATGTTCTTATTTAATAAAA [TGCATGCA_site743] — within error, 8.29 ± 0.39
- ATGGTTTTTATTTTATGTACTTACTAAAATGAATAA [XGTACX_site4317] — within error, 8.52 ± 0.37
- AAAATATTATTACAGAAACAAAAAGAAAAATATATA [GTGCAC_negctrl_site285] — within error, 8.6 ± 0.55
- GAATATGTTAACATTTGTACATAAAATTTTTTACAA [XGTACX_site2444] — within error, 8.48 ± 0.38
- GATATATTACTTAAAATACACACCATGGAAAAGTTT [CACACA_site2606] — within error, 8.9 ± 0.45
- ATGTTTAAATTTTTCAGTACATATATTCTAGTAAAA [XGTACX_site1010] — within error, 8.38 ± 0.38
- ACTATATTTCATAACAGTACATATTCCTGAAACATC [XGTACX_site4924] — within error, 8.79 ± 0.39
- ACAATATAAAAAAATTGTACATAATATATAATATTA [XGTACX_site1040] — within error, 8.61 ± 0.52
- CATGCTTATATGTGCACACACAAAAGAAAAGAAAAA [CACACA_site1655] — higher, 9.56 ± 0.51
- TGTTACATAAAATGCACACTTTCAAATATGCTAATA [CACACA_site2925] — within error, 8.65 ± 0.31
- TATAAGCTAAGTTGTTGTACAAAAAGGAAAAGTATA [XGTACX_site3741] — within error, 9.05 ± 0.65

Source: the supplement of paper PMC11417369
